Data published in PubChem BioAssay AID1918946 (Molecular Pharmacology Branch, DTP, NCI, 2023).
Certain results were filed several times, with different values. This is not the full list of results. The source may hold further records. Values that stand side by side are repeated measurements across runs, samples, wells, individuals or studies. Marks such as (2×) give the number of equal values in this list. Dates in brackets are months of testing.

Test system: 885512-296-R-J2-PDC complex spheroid viability
Assay: Anticancer human tumor 885512-296-R-J2-PDC patient-derived breast carcinoma cell line growth inhibition
Settings: stronger effect = lower value
Text: Multicellular complex tumor spheroid response to LSD1 Inhibitor Iadademstat in combination with a variety of drugs and investigational agents in selected tumor cell lines
The current study was undertaken to assess response to LSD1 inhibitors in combination with standard-of-care drugs and investigational agents in solid tumor complex spheroid models as well as in the K-562 leukemia. Complex spheroids include a stromal component modeled by human endothelial cells (HUVEC) and fibroblasts modeled by human mesenchymal stem cells (MSCs). The concentration ranges selected for each drug and investigational agent were based upon clinically achievable concentrations if the clinical Cmax of the agent was known.
Compounds. The drugs and investigational agents used in this study are listed on Table 1. All of the agents used, including staurosporine (NSC755774) and gemcitabine (NSC613327), were obtained from the Developmental Therapeutics Program, NCI. FDA-approved anticancer drugs are available from the NCI at http://dtp.nci.nih.gov/branches/dscb/oncology_drugset_explanation.html. Drugs and investigational agents were >95% pure by proton nuclear magnetic resonance (NMR) and liquid chromatography/mass spectrometry (LC/MS). Stock solutions were prepared at 400x in DMSO, stored at -70 degrees C, and diluted in fresh medium prior to their use. The final concentration of DMSO in cell culture wells never exceeded 0.25% (v/v). The FDA-approved anticancer drug set is available from the Developmental Therapeutics Program at https://dtp.cancer.gov/organization/dscb/obtaining/available_plates.htm. All drugs and investigational agents were tested over a range starting from a high concentration at or near the clinical Cmax and decreasing in half-log increments. If the clinical Cmax for an agent had not been determined, the highest concentration tested was 10 microM.
Cell Lines. The patient-derived cancer cell (PDC) lines: 292921-168-R-J2-PDC, K24384-001-R-PDC, and 521955-158-R2-J5-PDC pancreatic carcinomas, 556581-035-R-J1 ovarian carcinoma, 324938-238-R-J1-PDC, 855422-203-R-J1-PDC and 883617-216-R-J1-PDC urothelial bladder carcinomas, 743489-274-T-PDC renal cell carcinoma, 138582-R-J1 Merkel cell tumor, K60290-347-R-J1 and K57222-313-R-J1-PDC glioblastomas, 653999-131-R-J2-PDC, LG0703-F948-PDC, and 349418-098-R-PDC non-small cell lung carcinomas, 885512-296-R-J2-PDC, 171881-019-R-J1-PDC breast carcinomas and 186277-243-T-J2-PDC and 233499-124-R-J2-PDC colon carcinomas were obtained from the NCI Patient-Derived Models Repository (PDMR, https://pdmr.cancer.gov). The established cell lines NCI/ADR-RES (RRID:CVCL_14520 and OVCAR-5 (RRID:CVCL_1628) ovarian carcinomas, 786-O (RRID:CVCL_1051) and A498 (RRID:CVCL_A498) renal cell carcinoma, NCI-H211 (ATCC, cat. CRL-5824; RRID:CVCL_1529), NCI-H196 (ATCC, cat. CRL-5823, RRID:CVCL_1509), SW 1271 (ATCC, cat. CRL-2177, RRID:CVCL_1716) and NCI-H1876 (ATCC, cat. CRL-5902, RRID:CVCL_1503) small cell lung carcinomas, MDA-MB-231 (RRID:CVCL_0062) and MDA-MB-468 (RRID:CVCL_0419)breast carcinomas (10-12). Pooled donor human umbilical vein endothelial cells (HUVEC, Lonza, cat. CC-2519) and human mesenchymal stem cells (hMSC, Lonza, cat. PT-2501) were purchased from Lonza (Walkersville, MD).
Cell Culture. All cells were maintained in an incubator at 37 degrees C and 5% CO2 with 95% humidity. The PDC lines were cultured according to standard operating procedures established by the NCI PDMR (https://pdmr.cancer.gov). Briefly all PDCs were thawed and cultured in Matrigel-coated flasks prepared with a working solution of 1X Ham's F-12 nutrient mix, without supplementation (Invitrogen, Waltham, MA, cat. 11765054), 100 U/mL penicillin-streptomycin (Invitrogen, cat. 15140122), and 2.5% Matrigel (Corning Inc., Corning, NY, cat. 354248) for the first three passages. […]
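Further: spheroids exposed to agents for 7 days before viability read.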

Structure (SMILES) | viability, T/C (compound alone 0.316 µM) | viability, T/C (compound alone 1 µM) | viability, T/C (compound alone 3.16 µM) | viability, T/C (compound alone 10 µM) | viability, T/C (compound alone 0.001 µM) | viability, T/C (compound alone 0.00316 µM) | viability, T/C (compound alone 0.1 µM)
NC1CC1c1ccc(-c2cccc(O)c2)cc1 (stereo not given) | 135, 119 (2×), 118, 133, 110 (2×), 134, 142, 136, 108, 127, 143, 123, 128, 129, 111, 113, 109, 95.6, 124, 122, 100, 149, 131% | 122, 131 (3×), 116, 136, 107, 140 (2×), 108, 117 (3×), 138 (2×), 114 (2×), 120, 113 (2×), 91.8, 134 (2×), 119% | 119 (3×), 120, 106, 115 (2×), 89.9, 123, 121, 110 (2×), 126, 132, 116, 134, 104 (2×), 109, 107, 63.8, 111, 135, 114, 128% | 89.8, 95, 83.8, 89.1, 71.5, 85.2, 93.7 (2×), 89.9, 83.9, 91.2, 75.7, 87.3, 81.2, 83.5, 76.6, 86.4, 83.7, 54.4, 88.3, 87.7, 84.1, 104, 82.4, 80.6% |  |  | 
CC(C)CC(NC(=O)C(Cc1ccccc1)NC(=O)c1cnccn1)B(O)O (stereo not given) |  |  |  |  | 43.7% [2022-01] and 0.71% [2022-02] |  | 
CC1COCCN1c1cc(-c2ccnn2C)c2ccnc(-c3ccn[nH]3)c2n1 (stereo not given) |  |  |  |  |  | 32% [2022-01] and 3.08% [2022-02] | 
NC1CCC(NC2CC2c2ccccc2)CC1 (stereo not given) |  | 112, 121, 101, 122, 106 (2×), 136, 131, 127 (2×), 135, 162, 139, 119 (2×), 117, 113, 96.3, 114, 116, 133, 111, 115, 143, 109% | 116 (2×), 98.2, 122, 100, 123 (2×), 117, 129 (3×), 124, 111 (2×), 133, 125 (2×), 144, 101, 120, 103, 113, 118, 107, 109% | 100, 81.5, 85.3, 94.5, 98.5, 104 (3×), 99.3, 98.2, 123, 95.8, 106, 97.8, 81, 82.3, 91.2, 95.5 (2×), 90.6, 86, 114, 83.7% |  |  | 115, 120 (4×), 124, 119, 142, 126 (2×), 108, 129 (2×), 136, 138, 135, 141, 109, 121 (2×), 112, 143, 128, 125%
